The whole screen tested about 310,000 compounds, of which about 2,200 (0.71%) showed an effect of 50% or more. The effect is printed as a negative number. Some of the results follow.

Chain of human ether-à-go-go-related gene (hERG) potassium channel (Q12809 whole entry, looked up): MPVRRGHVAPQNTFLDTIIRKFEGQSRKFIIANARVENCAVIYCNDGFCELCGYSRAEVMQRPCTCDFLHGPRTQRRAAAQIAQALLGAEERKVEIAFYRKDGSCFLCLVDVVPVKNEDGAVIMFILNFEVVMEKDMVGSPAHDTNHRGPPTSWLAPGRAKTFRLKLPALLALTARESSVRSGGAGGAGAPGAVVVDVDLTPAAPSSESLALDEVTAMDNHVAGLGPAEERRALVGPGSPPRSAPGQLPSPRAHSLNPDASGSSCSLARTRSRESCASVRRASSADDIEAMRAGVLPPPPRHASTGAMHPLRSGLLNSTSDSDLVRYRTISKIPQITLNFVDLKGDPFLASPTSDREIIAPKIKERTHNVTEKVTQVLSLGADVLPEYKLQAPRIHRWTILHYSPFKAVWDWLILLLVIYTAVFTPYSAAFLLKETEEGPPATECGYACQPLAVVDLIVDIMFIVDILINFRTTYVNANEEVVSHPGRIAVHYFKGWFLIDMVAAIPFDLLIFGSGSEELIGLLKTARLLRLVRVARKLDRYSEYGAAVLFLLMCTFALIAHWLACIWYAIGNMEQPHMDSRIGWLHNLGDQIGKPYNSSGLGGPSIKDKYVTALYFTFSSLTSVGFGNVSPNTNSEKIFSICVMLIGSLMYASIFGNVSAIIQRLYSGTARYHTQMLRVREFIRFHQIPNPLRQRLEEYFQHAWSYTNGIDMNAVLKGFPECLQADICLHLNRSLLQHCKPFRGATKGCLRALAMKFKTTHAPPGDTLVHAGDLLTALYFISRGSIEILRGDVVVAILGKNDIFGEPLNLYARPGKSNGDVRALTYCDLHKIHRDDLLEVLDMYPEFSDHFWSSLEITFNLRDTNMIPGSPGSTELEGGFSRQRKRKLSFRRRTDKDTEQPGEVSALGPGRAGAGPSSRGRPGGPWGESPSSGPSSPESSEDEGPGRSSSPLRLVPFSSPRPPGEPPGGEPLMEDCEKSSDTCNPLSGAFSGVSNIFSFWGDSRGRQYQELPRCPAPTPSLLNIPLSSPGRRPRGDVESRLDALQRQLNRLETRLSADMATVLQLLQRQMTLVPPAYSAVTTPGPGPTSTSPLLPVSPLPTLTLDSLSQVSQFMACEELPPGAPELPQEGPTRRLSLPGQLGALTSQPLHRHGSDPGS

This assay concerns the target human ether-à-go-go-related gene (hERG) potassium channel (human, UniProt Q12809). Kind of assay: primary screen, population patch clamp on CHO cells stably expressing hERG.
On to `COc1ccc(-c2nnc(NC(=O)CS(=O)(=O)c3ccc(F)cc3)o2)c(OC)c1`, for which the “hERG current change (%, negative = inhibition) at 1uM” value stood at 12.6%.
For `Cc1ccc(N2CCN(S(=O)(=O)N3CCCCC3)CC2)c(C)c1` the value was 16.5%; for `CC1=C(C(=O)OC2CCCCC2)C(c2cccnc2)n2ncnc2N1` (stereo not drawn), 13%.
For `S=C(NCc1ccc(Cl)cc1)Nc1ccccc1`, the “hERG current change (%, negative = inhibition) at 1uM” value stood at 0.965%.
Turning to `Cc1sc(NC(=O)CN(Cc2ccccc2)C(=O)C2CC2)c(C(N)=O)c1C`, the “hERG current change (%, negative = inhibition) at 1uM” value was determined as 12.5%.
For `Cc1cccc(C)c1OCc1cc(C(=O)N2CCNC(=O)C2)no1`, the “hERG current change (%, negative = inhibition) at 1uM” value amounted to 4.59%.
For `O=C(Cn1[nH]c(=O)c2ccccc2c1=O)OCC(=O)N1CCc2ccccc2C1`, the “hERG current change (%, negative = inhibition) at 1uM” value was -1.11%.
For `COc1ccc(N2C(=O)CCC2(C(N)=O)c2ccccc2)cc1` (stereo not drawn) the value was 4.96%.
For the molecule `COc1ccc(C(=O)Oc2ccc(/C=N/NC(=O)c3ccccc3OC)cc2[N+](=O)[O-])cc1`, the “hERG current change (%, negative = inhibition) at 1uM” value is -0.102%.
In the case of `Cc1cc(NC(=O)c2ccc3nc(C)sc3c2)no1`, the “hERG current change (%, negative = inhibition) at 1uM” value was found to be 9.35%.
For the molecule `COC(=O)c1ccccc1OCCOc1ccccc1C(=O)OC`, the “hERG current change (%, negative = inhibition) at 1uM” value is reported as 9.72%.
With `O=C(CC1C(=O)NCCN1Cc1cccc(Oc2ccccc2)c1)NCCc1cnccn1` (stereo not drawn), the “hERG current change (%, negative = inhibition) at 1uM” value was found to be 15%.
`C/C=C/c1ccc(OCCCCN2CCC(C)CC2)c(OC)c1`: the “hERG current change (%, negative = inhibition) at 1uM” value was -46.5%.
For `COc1cccc(C2Nc3ccccc3NC3=C2C(=O)CC(C)(C)C3)c1OC` (stereo not drawn) the value was 9.22%; for `COc1ccc(-c2cc(C(=O)Nc3cccnc3Cl)no2)cc1`, 13.3%; for `Cc1cccc(NC(=O)c2ccc3ccccc3n2)n1`, 6.32%.
The same measure for `COC(=O)c1sc2ccccc2c1NC(=O)c1ccc(S(=O)(=O)N2CCCC(C)C2)cc1` (stereo not drawn): 1.19%; for `COc1cccc(NC(=O)CN(C)C(=O)C23CC4CC(CC(Cl)(C4)C2)C3)c1`: 6.83%; for `COc1cnn(-c2cccc(C)c2)c(=O)c1Cl`: 12.4%.
For `CCCCNc1c(-c2ccc(SC3CCCCC3)c(OC)c2)nc2ccc(Cl)cn12.O=C(O)C(F)(F)F` the value was 7.4%; for `CN(Cc1ccccc1)S(=O)(=O)c1ccc2c(c1)n(C)c(=O)n2C`, 9.04%.
On to `CC(C)C(c1nnnn1Cc1ccccc1)N1CCN(Cc2ccc3c(c2)OCO3)CC1` (stereo not drawn), for which the “hERG current change (%, negative = inhibition) at 1uM” value is recorded as -6.86%.
Regarding `CC(=O)Nc1c(F)c(F)c(F)c(F)c1F`, the “hERG current change (%, negative = inhibition) at 1uM” value worked out at 9.7%.
As for `CC1Oc2ccccc2N(CC(=O)N2CCCCCC2)C1=O` (stereo not drawn), the “hERG current change (%, negative = inhibition) at 1uM” value was 14.2%.
The same measure for `Cn1nnnc1Sc1ncnc2scc(-c3ccccc3Cl)c12`: 12.7%; for `C(=N/N1CCN(c2ccccc2)CC1)/c1ccncc1`: 5.3%; for `OC(CNCc1ccccc1)COc1ccccc1` (stereo not drawn): 5.36%.
The same measure for `CN1CCN(C(CNS(=O)(=O)c2ccc(Cl)cc2)c2cccnc2)CC1` (stereo not drawn): -5.16%; for `CCCc1cc(C(=O)N/N=C/c2ccc(C)o2)c2ccccc2n1`: 7.09%.
As for `Cc1nn(CC(=O)NCCCN2CCC(Cc3ccccc3)CC2)c(=O)c2cc(-c3ccccc3)nn12`, the “hERG current change (%, negative = inhibition) at 1uM” value is -19.3%.
The same measure for `Cc1ccc(C(=O)Nc2ccncc2)c(C)c1`: 14.9%; for `CC(C)(C)OC(=O)NC(CC(=O)OCc1ccccc1)C(=O)O` (stereo not drawn): 11.6%.
Take `CN(C)CCN(C(=O)c1ccc(C(=O)c2ccccc2)cc1)c1nc2cc3c(cc2s1)OCCO3.Cl`: the “hERG current change (%, negative = inhibition) at 1uM” value is listed as 6.13%.
The same measure for `CC(=O)Nc1ccc(S(=O)(=O)NCC(=O)NNC(=O)COc2ccccc2Cl)cc1`: -2.81%.
Turning to `N#Cc1cnn2cc(CCN3CCOCC3)c(-c3ccc(F)cc3)nc12`, the “hERG current change (%, negative = inhibition) at 1uM” value is on record as -0.5%.
The same measure for `COCCN(Cc1nc2ccccc2c(=O)[nH]1)C(=O)c1cccc(S(=O)(=O)N2CCCC2)c1`: 3.61%; for `CCOC(=O)C1=C(C)N(C)C(=O)NC1c1c(C)nn(-c2ccc(C)cc2)c1Cl` (stereo not drawn): 10.9%; for `S=c1[nH]nc([C@@H]2C[C@H]2c2ccccc2)n1-c1ccccc1`: 14%.
Regarding `COc1ccc(N=Nc2nc3ccc(Br)cc3n2C)cc1`, the “hERG current change (%, negative = inhibition) at 1uM” value came to 19.6%.
For `CN(C)CCN(CC1CCCN(Cc2ccccc2F)C1)C(=O)c1ccc(Cl)cc1` (stereo not drawn) the value was 13.4%.
For `CCOc1ccc2nc(NC(=O)C(CCSC)NS(=O)(=O)c3cccs3)sc2c1` (stereo not drawn) the value was 5.25%.
For `CCOC(=O)C(=CNc1nc(-c2ccc3ccccc3c2)cs1)C(=O)OCC` the value was 11.6%; for `C/C(=N\NC(=O)Cc1c[nH]c2ccccc12)c1ccc2ccccc2c1`, 8.01%; for `O=C(Cn1c(=O)n(CC2CCCO2)c(=O)c2ccccc21)N1CCN(c2ccccc2)CC1` (stereo not drawn), -4.29%.
Take `CCCCOc1ccc(C(=O)OCC(=O)Nc2cc(C)c(C)cc2[N+](=O)[O-])cc1`: the “hERG current change (%, negative = inhibition) at 1uM” value was 6.48%.
As to `NC(=O)C1=C[C@@H](C2CCCCC2)C[C@@H](OCCCCO)O1`, the “hERG current change (%, negative = inhibition) at 1uM” value stood at 14.2%.
In the case of `O=C(N/N=C/c1ccc([N+](=O)[O-])o1)c1ccccc1-n1cccc1`, the “hERG current change (%, negative = inhibition) at 1uM” value was 1.53%.
For `CC1(C)CC(=O)C=C(NCc2ccc(Cl)c(Cl)c2)C1`, the “hERG current change (%, negative = inhibition) at 1uM” value stood at 1.69%.
Take `Cc1nnc(SCC(=O)NCCc2ccccc2)s1`: the “hERG current change (%, negative = inhibition) at 1uM” value amounted to 13.9%.
The same measure for `COC(=O)c1cn(CCC#N)nc1-c1ccc2ccccc2c1`: 5.43%.
Take `CC(=O)N1c2ccc(S(=O)(=O)N3CCCC(C(=O)Nc4cccc(F)c4)C3)cc2CC1C` (stereo not drawn): the “hERG current change (%, negative = inhibition) at 1uM” value is recorded as 1.69%.
The same measure for `NC(=O)[C@@H]1CCCN1Cc1c(C(=O)N2CCc3ccccc3C2)nc2ccc(Cl)cn12`: 8.27%.
For `CCCC(=O)c1cc2ccccc2oc1=O` the value was 10.3%; for `O=C(CSc1nnc(CNC(=O)c2ccc(F)cc2)o1)Nc1ccc2c(c1)OCCO2`, 16.9%; for `O=C(O)CC(NC(=O)C12CC3CC(CC(C3)C1)C2)c1cccc([N+](=O)[O-])c1` (stereo not drawn), 6.45%.
Consider `COc1ccc(O)c(C(=O)c2coc(=N)c(C(=O)Nc3ccc(SC(F)F)cc3)c2)c1`, for which the “hERG current change (%, negative = inhibition) at 1uM” value is listed as -15.5%.
For `Cc1ccc(NC(=S)/N=C(\N)Nc2nc(C)c3ccccc3n2)cc1C` the value was -2.58%.
For `CCOC(=O)C1=C(c2ccccc2)NC(SCC(=O)NC2CCCCC2)=C(C#N)C1c1ccco1` (stereo not drawn) the value was 10.2%; for `CCC(=O)NC(=S)N1CCN(c2ccc([N+](=O)[O-])cc2Cl)CC1`, -11.8%.
As for `Cc1ccc(N(C)C(=O)N2CCN(S(=O)(=O)c3c(C)cc(C)cc3C)CC2)cc1`, the “hERG current change (%, negative = inhibition) at 1uM” value is listed as 1.4%.
The same measure for `CN(C)C(=O)Oc1ccc(OC(=O)N(C)C)cc1`: 6.24%; for `CCC1CCCCN1C(=O)c1cc2cc(Br)ccc2oc1=O` (stereo not drawn): -3.33%.
Turning to `COC(=O)c1ccc(CSc2nnnn2-c2ccccc2)o1`, the “hERG current change (%, negative = inhibition) at 1uM” value came out at 14.6%.
The same measure for `CC(=O)c1cccc(NC(=S)N2CCCC2)c1`: 9.48%.
As for `COc1cccc2cc(C(=O)CC3(O)C(=O)N(Cc4ccccc4)c4ccccc43)c(=O)oc12` (stereo not drawn), the “hERG current change (%, negative = inhibition) at 1uM” value came to 9.51%.
In the case of `COc1cc(N2C(=O)NC3CC2(C)Oc2ccccc23)cc(OC)c1OC` (stereo not drawn), the “hERG current change (%, negative = inhibition) at 1uM” value worked out at 16.8%.
On to `CCN(Cc1ccccc1)S(=O)(=O)c1nc2nc(C)c(C)c(C)n2n1`, for which the “hERG current change (%, negative = inhibition) at 1uM” value was found to be 6.07%.
As to `O=C(CSc1nnc(COc2ccc(Cl)cc2)o1)N1CCN(c2ccccc2)CC1`, the “hERG current change (%, negative = inhibition) at 1uM” value came out at 3.48%.
On to `CC(C)(C)CC(=O)Nc1nnc(SCC(=O)NC2CCCC2)s1`, for which the “hERG current change (%, negative = inhibition) at 1uM” value is recorded as 2.17%.
For `CC(=O)Nc1nc(COc2ccc3ccccc3c2)cs1` the value was 19.3%.
For `Cc1nc(SCC(=O)Nc2cc(C(N)=O)cc(C(N)=O)c2)c2c(C)c(C)sc2n1` the value was 12%; for `C/C(CCc1ccccc1)=N\NC(=O)C1C2CCCCC21` (stereo not drawn), 12.9%.
The same measure for `C/C(N)=C(/C#N)C(=O)COC(=O)C1=NN(c2ccccc2)C(=O)CC1`: 18.3%.
With `COc1cc(NS(=O)(=O)c2ccc(NC(=S)NC(=O)c3ccco3)cc2)ncn1`, the “hERG current change (%, negative = inhibition) at 1uM” value is reported as 18.5%.
On to `O=C(CCC(=O)Nc1ccc(F)cc1)N/N=C/c1cccs1`, for which the “hERG current change (%, negative = inhibition) at 1uM” value turned out to be 7.12%.
With `O=C/C(=C\Nc1ccccn1)c1nc2ccccc2o1`, the “hERG current change (%, negative = inhibition) at 1uM” value is -7.25%.
For `CN(Cc1ccc2ccccc2c1)C(=O)c1ccc(C(F)(F)F)cc1` the value was 17.9%; for `COC(=O)CON1C(=O)c2ccccc2C1=O`, 4.67%; for `CCn1c(C)cc2c(c1=O)C(c1ccc3c(c1)OCO3)C(C#N)=C(N)O2` (stereo not drawn), -2.94%.
For `Clc1ccc2nc(-c3cccc(SC4CCCCC4)c3)c(NCc3ccccc3)n2c1.O=C(O)C(F)(F)F`, the “hERG current change (%, negative = inhibition) at 1uM” value worked out at 5.58%.
The same measure for `O=C(NCCc1nc2ccccc2[nH]1)c1ccc(F)cc1`: -14.9%; for `O=C(Nc1ccc(-n2nncc2-c2ccco2)cc1)c1ccc(F)cc1`: -1.99%.
The same measure for `CCOC(=O)[C@H](CCc1ccccc1)N[C@H]1CCc2ccccc2N(CC(=O)O)C1=O.Cl`: 16.1%; for `Cc1[nH]c(C)c(S(=O)(=O)NCc2ccccc2Cl)c1C(=O)N1CCCC1`: 9.42%.
Regarding `Cc1cc(NC(=O)c2ccc(C#N)cc2)n(-c2ccccc2)n1`, the “hERG current change (%, negative = inhibition) at 1uM” value amounted to 8.2%.
For `CC(C)C(=O)NNC(=O)c1csc(CS(=O)(=O)c2ccc(Cl)cc2)n1`, the “hERG current change (%, negative = inhibition) at 1uM” value is listed as 4.21%.
For the molecule `CCCCn1c(=O)[nH]c2nc3cc(NC(C)=O)ccc3nc2c1=O`, the “hERG current change (%, negative = inhibition) at 1uM” value came to 18.1%.

Values taken from PMC4336329 (PLoS ONE, 2015).
